The supplement of paper PMC12217912
This is one part of the list. Sequences were assembled here from the parent chain. Values near 0.05 are background.

B1: TEV protease; numbered along this chain (parent)
chain: MGESLFKGPRDYNPISSSICHLTNESDGHTTSLYGIGFGPFIITNKHLFRRNNGTLVVQSLHGVFKVKDTTTLQQHLVDGRDMIIIRMPKDFPPFPQKLKFREPQREERICLVTTNFQTKSMSSMVSDTSCTFPSGDGIFWKHWIQTKDGQCGSPLVSTRDGFIVGIHSASNFTNTNNYFTSVPKNFMELLTNQEAQQWVSGWRLNADSVLWGGHKVFMVKPEEPFQPVKEATQL

Variants of: B1
Test: raw area under fraction-flipped curve 0-4 h after induction (AUC4h, not background-subtracted), DNA-recorder readout of cleavage of the substrate (dimensionless); higher = more cleavage of the substrate by the protease variant
Conditions: temperature: 34 °C; time window: 0-4 h after rhamnose induction
Experimental: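 In vivo DNA recorder in E. coli TOP10(DE3) ΔrhaA at 34 °C. Each TEVp single-site mutant (parent TEVp 0) is paired with a single-site variant of the 7-mer TEVs (canonical ENLYFQ|S). The substrate sits between flexible linkers in a Bxb1-sfGFP-TEVs-SsrA fusion, so cleavage stabilises Bxb1 and speeds flipping of a recombination array, read by NGS. The value is the raw area under the fraction-flipped curve over 0-4 h after rhamnose induction (AUC4h), with ≥20 reads per time point. It is not background-subtracted; inactive controls average about 0.047.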
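Note: Bxb1 expression induced with 0.2% (w/v) L-rhamnose at OD600 near 0.5, cultures sampled hourly, flipped fraction per protease–substrate barcode pair counted by paired-end Illumina sequencing.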

Variant	area with substrate ENLYFAS	area with substrate ENLYFCS	area with substrate ENLYFES	area with substrate ENLYFFS	area with substrate ENLYFHS	area with substrate ENLYFIS	area with substrate ENLYFLS	area with substrate ENLYFMS	area with substrate ENLYFNS	area with substrate ENLYFPS	area with substrate ENLYFRS	area with substrate ENLYFVS	area with substrate ENLYFWS	area with substrate ENLYFYS	area with substrate ENLYFGS	area with substrate ENLYFKS	area with substrate ENLYFTS	area with substrate ENLYFDS	area with substrate ENLYFSS
MGESLFKGPRDYNPISSSICHLTNESDGHTTSLYGIGFGPFIITNKHLFRRNNGTLVVQSLHGVFKVKDTTTLQQHLVDGRDMIIIRMPKDFPPFPQKLKFREPQREERICLVTTNFQTKSMSSMVSDTSCTFPSGDGIFWKHWIQTKDGQCGSPLVMTRDGFIVGIHSASNFTNTNNYFTSVPKNFMELLTNQEAQQWVSGWRLNADSVLWGGHKVFMVKPEEPFQPVKEATQL [S158M]	0.0577	0.058	0.0607	0.0707	0.0539	0.0534	0.0596	0.045	0.094	0.0654	0.0449	0.0586	0.0489	0.0439	–	–	–	–	–
MGESLFKGPRDYNPISSSICHLTNESDGHTTSLYGIGFGPFIITNKHLFRRNNGTLVVQSLHGVFKVKDTTTLQQHMVDGRDMIIIRMPKDFPPFPQKLKFREPQREERICLVTTNFQTKSMSSMVSDTSCTFPSGDGIFWKHWIQTKDGQCGSPLVSTRDGFIVGIHSASNFTNTNNYFTSVPKNFMELLTNQEAQQWVSGWRLNADSVLWGGHKVFMVKPEEPFQPVKEATQL [L77M]	0.0849	0.057	–	0.0631	0.0613	0.0417	–	0.0629	0.0472	0.0619	0.0627	0.0546	0.0493	–	0.0498	0.0636	0.0672	–	–
MGESLFKGPRDYNPISSSICHLTNESDGHTTSLYGIGFGPFIITNKHLFRRNNGTLVVQSLHGVFKVKDTTTLQQHLVDGRDMIIIRMPKDFPPFPQKLKFREPQREERICLVTTNFQTKSMSSMVSDTSCTFPSGDGIFWKHWIQTKDGQCGSPLVSTRDGFIVGIHSASNFTNTNNYFTSVPKNFMEELTNQEAQQWVSGWRLNADSVLWGGHKVFMVKPEEPFQPVKEATQL [L190E]	0.06	0.0822	0.0667	0.0713	–	0.0454	0.0651	0.0671	0.0787	0.0622	–	0.05	0.0916	0.0474	–	0.0552	0.0561	0.0533	0.0496
MGESLFKGPRDYNPISSSICHLTNESDGHTTSLYGIGFGPFIITNKHLFRRNNGTLVVQSLHGVFKVKDTTTLQQHLVDGRDMIIIRMPKDFPPFPQKLKFREPQREERICLVTTNFQTKSMSSMVSDTSCTFPSGDGIFWKHWIQTKDGQCGSPLVSTRDGFIVGIHSASNFTNTNNYFTSVPKNFMELVTNQEAQQWVSGWRLNADSVLWGGHKVFMVKPEEPFQPVKEATQL [L191V]	0.0579	0.0733	0.0572	0.0706	0.0562	0.056	–	0.0722	0.0686	0.0534	–	0.0688	0.0602	0.07	0.0595	0.059	0.0593	–	–
MGESLFKGPRDYNPISSSICHLTNESDGHTTSLYGIGFGPFIITNKHLFRRNNGTLVVQSLHGVFKVKDTTTLQQHLVDGRDMQIIRMPKDFPPFPQKLKFREPQREERICLVTTNFQTKSMSSMVSDTSCTFPSGDGIFWKHWIQTKDGQCGSPLVSTRDGFIVGIHSASNFTNTNNYFTSVPKNFMELLTNQEAQQWVSGWRLNADSVLWGGHKVFMVKPEEPFQPVKEATQL [I84Q]	0.0448	–	0.0563	–	–	–	0.0693	–	0.067	0.0682	–	–	–	–	0.0403	0.0569	–	–	–
MGESLFKGPRDYNPISSSICHLTNESDGHTTSLYGIGFGPFIITNKHLFRRNNGTLVVQSLHGVFKVKDTTTLQQHLVDGRDMIIIRMPKDFPPFPQKLKFREPQREERICLVTTNFQTKSMSSMVSDTSCTFPSGDGIFWKHWIQTKDGQCGSPLVSTRDGFIVGIHSASNFTNTNNYFTSVPKNFMELLTNQEAQQWVSGWRLNADSVLWGGHKVFMVKPEEPFQPVKEATQI [L235I]	0.0554	–	–	0.0753	0.0537	0.0528	0.0669	0.0657	–	0.0564	–	–	–	0.0696	0.0586	0.0607	–	0.0587	0.0584
MGESLFKGPRDYNPISSSICHLTNESDGHTTSLYGIGFGPFIITNKHLFRRNNGTLVVQSLHGVFKVKDTTTLQQHLVDGRDMIIIRMPKDFPPFPQKLKFREPQREERICLVTTNFQTKSMSSMVSDTSCTFPSGDGIFWKHWIQTKDGQCGSPLVSTRDGFIVGIHSASNFTNTNNYFTSVPKNFMELLTRQEAQQWVSGWRLNADSVLWGGHKVFMVKPEEPFQPVKEATQL [N193R]	0.0632	–	0.0573	–	–	0.06	–	0.0568	–	–	0.0539	–	–	–	–	0.0505	0.0452	–	–
MGESLFKGPRDYNPISSSICHLTNESDGHTTSLYGIGFGPFIITNKHLFRRNNGTLCVQSLHGVFKVKDTTTLQQHLVDGRDMIIIRMPKDFPPFPQKLKFREPQREERICLVTTNFQTKSMSSMVSDTSCTFPSGDGIFWKHWIQTKDGQCGSPLVSTRDGFIVGIHSASNFTNTNNYFTSVPKNFMELLTNQEAQQWVSGWRLNADSVLWGGHKVFMVKPEEPFQPVKEATQL [V57C]	0.067	–	0.0758	0.0762	0.0549	–	–	0.0613	0.0646	0.0599	0.0533	–	0.0482	–	0.051	–	0.0537	–	0.0511
MGESLFKGPRDYNPISSSICHLTNESDGHTTSLYGIGFGPFIITNKHLFRRNNGTLVVQSLHGVFKVKDTTTLQQHLVDGRDMIIIRMPKDFPPFPQKLKFREPQREERICLVTTNFQTKSMSSMVSDTSCTFPSGDGIFWKHWIQTKDGRCGSPLVSTRDGFIVGIHSASNFTNTNNYFTSVPKNFMELLTNQEAQQWVSGWRLNADSVLWGGHKVFMVKPEEPFQPVKEATQL [Q151R]	0.0543	–	0.107	0.0745	–	–	0.0581	0.0586	0.0582	–	–	0.0643	–	–	–	0.0644	0.0621	–	0.0747
MGESLFKGPRDYNPISSSICHLTNESDGHTTSLYGIGFGPFIITNKHLFRRNNGTLVVQSLHGVFKVKDTTTLQQHLVDGRDMIIIRMPKDFPPFPQKLKFREPQREERICLVTTNFQTKSMSSMVSDTSCTFPSGDGIFWKHWIQTKDGQCGSPLVSTRDGFIVGIHSASNFTNTNNYFTSVPKNFMELLTNQEAQQWVSGWRLNADLVLWGGHKVFMVKPEEPFQPVKEATQL [S209L]	0.0412	–	–	0.0637	–	0.0416	0.073	–	–	–	0.0605	–	–	0.0792	–	0.0496	–	–	0.0732
